Read-outs that look alike come from different tables or passages of the source.
Assays:
[1] = tested on: Transduced FL5.12; assay: Apoptosis/viability of FL5.12 cells stably transduced with Scn; assay type: cell-based, murine; settings: iron-free compounds added at 100 µM, with IL-3
[2] = tested on: T1, Scn; settings: cited from earlier work
T1 construct: made in house; host or cells: E. coli

[3] = tested on: Transduced 32D.3; assay: Apoptosis/viability of 32D.3 cells stably transduced with Scn; assay type: cell-based, murine; settings: iron-free compounds added at 100 µM, with IL-3
[4] = biological target: Scn; settings: cited from earlier work

## O=C(O)c1cccc(O)c1O [2,3-DHBA, 2,3-dihydroxybenzoic acid]
[1]
  effect on apoptosis / viability: none of the other compounds had significant effects on viability
[2]
  pH below which iron is released from Scn/siderophore/iron complexes: < 4
[3]
  effect on apoptosis / viability: none of the other compounds had significant effects on viability

## O=C(N[C@H]1COC(=O)[C@@H](NC(=O)c2cccc(O)c2O)COC(=O)[C@@H](NC(=O)c2cccc(O)c2O)COC1=O)c1cccc(O)c1O [Ent, enterobactin]
[2]
  pH below which iron is released from Scn/siderophore/iron complexes: < 4
[4]; read-out: equilibrium dissociation constant (KD), binding to Scn
  Kd: 0.4 ± 0.1 nM
[3]
  effect on apoptosis / viability: induced robust apoptosis

## O=C(O)c1cc(O)ccc1O [GA, 2,5-dihydroxybenzoic acid]
[1]
  effect on apoptosis / viability: none of the other compounds had significant effects on viability
[4]; binding to Scn in the absence of iron
  Kd: 12 nM
[3]
  effect on apoptosis / viability: none of the other compounds had significant effects on viability

## O=C(O)c1ccccc1O [SA, 2-hydroxybenzoic acid]
[4]
  binding of ferric complexes to Scn: do not bind to Scn

## O=C(NCCN(CCNC(=O)c1cc(O)ccc1O)CCNC(=O)c1cc(O)ccc1O)c1cc(O)ccc1O [TRENGEN]
[1]
  effect on apoptosis / viability: none of the other compounds had significant effects on viability
[3]
  effect on apoptosis / viability: none of the other compounds had significant effects on viability

## Oc1ccccc1O [catechol, 1,2-dihydroxybenzene]
[2]
  pH below which iron from Scn/catechol complexes is released: below 6
[4]; free catechol binding to Scn
  Kd: 200 ± 60 nM

## O=C(CC(O)(CC(=O)NCCCCNCCCNC(=O)c1ccc(O)c(O)c1)C(=O)O)NCCCCNCCCNC(=O)c1ccc(O)c(O)c1 [petrobactin]
[4]
  binding to Scn as iron complexes: do not bind to Scn
